{"source": "PubChem BioAssay AID686971", "about": "(National Center for Advancing Translational Sciences (NCATS), 2013)", "note": "The campaign covered roughly 360,000 compounds. About 7,500 (2.1%) were called active. The shares of active, inactive and inconclusive entries below differ from those in the screen. The call rests on the fitted dose curve; in most records, active means well fitted cell-killing curve with a large enough effect; inconclusive means small, poorly fitted or top-dose-only effect, or effect the other way, or another doubt; inactive means no such curve, though single readings can be large or run the other way. Potencies of inconclusive entries are left out as doubtful fits. Potency means the concentration at half of the fitted maximal effect; tags describe the fitted curve by direction and shape.", "data": [{"assay": "qHTS for induction of synthetic lethality in tumor cells producing 2HG: qHTS for the HT-1080-IDH1KD cell line;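 on activity, negative = toxicity: 0% = DMSO wells and -100% = cell-free medium wells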", "details": "HT-1080 IDH1 knockdown viability, ATP luminescence, 48 h; activity, negative = toxicity: at 46.1 µM (top of the series) unless noted", "method_in_brief": "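HT-1080-IDH1KD cells (IDH1 knocked down), 750/well in RPMI with 5% FBS, treated with compound 48 h at 37 degrees C. Viability by CellTiter-Glo luminescence, normalised to DMSO and no-cell wells; concentration-response curves classed.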", "values": [{"smiles": "Cc1ccc(NC(=O)Cc2nc(COC(=O)c3c(F)cccc3Cl)cs2)cc1", "Potency": "inconclusive [cytotoxic, single point]"}, {"smiles": "COc1cc(Cl)c(C)cc1NC(=O)CN(C)Cc1cccc(OC)c1OC", "Potency": "inconclusive [cytotoxic, single point]"}, {"smiles": "CCOCCC(=O)Nc1ncc(S(=O)(=O)c2ccc([N+](=O)[O-])cc2)s1", "activity, negative = toxicity": "inactive: -4.06%"}, {"smiles": "CCCCC(=O)OCC(=O)C1(O)Cc2c(O)c3c(c(O)c2C(OC2CC(NC(=O)C(F)(F)F)C(O)C(C)O2)C1)C(=O)c1c(OC)cccc1C3=O", "note": "(stereo not drawn)", "Potency": "active: 8.2 µM"}, {"smiles": "O=C(CNC(=O)c1ccc(Br)o1)NNC(=O)COc1ccccc1Cl", "activity, negative = toxicity": "inactive: -1.57%"}, {"smiles": "Cc1cccc(N2CCN(C(=O)c3cc4n(n3)C(C(F)(F)F)CC(c3ccco3)N4)CC2)c1C", "note": "(stereo not drawn)", "Potency": "inconclusive [cytotoxic, single point]"}, {"smiles": "COc1cc(-c2nc3cc(C)ccn3c2NC2CCCCC2)ccc1-c1ccc(C(C)=O)cc1", "Potency": "inconclusive [cytotoxic, single point]"}, {"smiles": "CCOc1ccccc1-n1c(SCC(=O)Nc2ccc(CC)cc2)nc2n[nH]c(C)c2c1=N", "Potency": "inconclusive [cytotoxic, single point]"}, {"smiles": "CCOc1cc(C#N)c(NC(=O)c2cccnc2)cc1OCC", "Potency": "active: 5.17 µM"}, {"smiles": "CCN(CCO)C(=O)CC1C(=O)NCCN1Cc1c(F)cccc1Cl", "note": "(stereo not drawn)", "activity, negative = toxicity": "inactive: 24%"}, {"smiles": "CCOC(=O)OCC(=O)C1(O)CCC2C3CCC4=CC(=O)CCC4(C)C3C(O)CC21C", "note": "(stereo not drawn)", "Potency": "inconclusive [rising, full curve]"}, {"smiles": "COC(=O)C(Cc1cnc(Cl)s1)(C(=O)OC)c1ccc([N+](=O)[O-])cc1[N+](=O)[O-]", "activity, negative = toxicity": "inactive: -0.611%"}, {"smiles": "CNC(=O)c1cc(-c2ccc(Cl)cc2)n(-c2ccccc2)n1", "Potency": "inconclusive [cytotoxic, partial curve]"}, {"smiles": "Cc1ccc(C)c(S(=O)(=O)N2CCN(C(=O)c3cccnc3)CC2)c1", "activity, negative = toxicity": "inactive: 8.95%"}, {"smiles": "COc1cc2nc(Nc3ccc(C)c(Cl)c3)nc(N)c2cc1OC", "Potency": "active: 13 µM"}, {"smiles": "Cc1ccccc1OCc1n(CC(=O)OC2CC(C)CCC2C(C)C)c2ccccc2[n+]1C", "note": "(stereo not drawn)", "Potency": "active: 7.31 µM"}, {"smiles": "COc1cc(C(=O)Nc2nc(C)c(Cc3ccc4c(c3)OCO4)s2)cc(OC)c1OC", "Potency": "active: 4.61 µM"}, {"smiles": "CC1(C(=O)NCc2cccc3ccccc23)CCN1Cc1ccccc1OC(F)F", "note": "(stereo not drawn)", "Potency": "inconclusive [cytotoxic, single point]"}, {"smiles": "O=C(CSc1nnc(SCc2cccc3ccccc23)s1)Nc1ccc(C(=O)O)cc1", "Potency": "inconclusive [rising, single point]"}, {"smiles": "CC(C)c1ccc(/C=N/NC(=O)CN(c2cccc(Cl)c2Cl)S(C)(=O)=O)cc1", "Potency": "active: 20.6 µM"}, {"smiles": "Cc1ccc(S(=O)(=O)c2c(C)nn(C(C)(C)C)c2OC(=O)CC(C)C)cc1", "Potency": "inconclusive [cytotoxic, single point]"}, {"smiles": "CCCn1c(=N)n(CC(O)COc2ccc(C)cc2)c2ccccc21", "note": "(stereo not drawn)", "Potency": "active: 16.4 µM"}, {"smiles": "Cc1cccc(NC(=O)CC2C(=O)NCCN2C(=O)Nc2ccc(Cl)cc2)c1", "note": "(stereo not drawn)", "Potency": "inconclusive [cytotoxic, single point]"}, {"smiles": "CCOc1ccc(CC(=O)Nc2ccc(NC(=O)c3ccco3)cc2)cc1OCC", "Potency": "active: 11.6 µM"}, {"smiles": "CCCCC(O)(c1ccc(OC)cc1)C(CN1CCOCC1)c1ccccc1", "note": "(stereo not drawn)", "Potency": "inconclusive [cytotoxic, partial curve]"}, {"smiles": "COCCn1c(-c2ccc(OC)cc2)cnc1SCC(=O)Nc1cccc2ccccc12", "Potency": "inconclusive [cytotoxic, single point]"}, {"smiles": "O=C1NC(Cc2ccc(O)cc2)c2nc3cc(Cl)ccc3c(=O)n2-c2cc3ccccc3cc21", "note": "(stereo not drawn)", "Potency": "active: 16.4 µM"}, {"smiles": "O=C(NCCc1c[nH]c2ccccc12)OCCCCOC(=O)NCCc1c[nH]c2ccccc12", "Potency": "inconclusive [cytotoxic, single point]"}, {"smiles": "COC(=O)c1cn(NC(=O)c2cnccn2)c(=O)c2ccccc12", "Potency": "inconclusive [cytotoxic, single point]"}, {"smiles": "COc1ccc(NC(=O)c2cccc(S(=O)(=O)Nc3ccc(Br)cc3)c2)cn1", "Potency": "inconclusive [cytotoxic, partial curve]"}, {"smiles": "O=C(NCCC1=CCCCC1)C1CCN(S(=O)(=O)N2CCCC2)CC1", "activity, negative = toxicity": "inactive: -0.31%"}, {"smiles": "CN1/C(=C/C2CC(=O)N(c3ccc([N+](=O)[O-])cc3)C2=O)C(C)(C)c2ccccc21", "note": "(stereo not drawn)", "activity, negative = toxicity": "inactive: -27.5%"}, {"smiles": "Cc1ccc(C2N(C)c3ccccc3-c3nc4ccccc4n32)o1", "note": "(stereo not drawn)", "Potency": "inconclusive [cytotoxic, single point]"}, {"smiles": "O=C(CSc1cccc2cccnc12)N/N=C/c1cccnc1", "Potency": "inconclusive [cytotoxic, single point]"}, {"smiles": "Cc1cc(C)c(OCC(=O)Nc2nc(-c3ccccn3)cs2)c(C)c1", "activity, negative = toxicity": "inconclusive: -26.7% [cytotoxic]"}, {"smiles": "COc1ccc(N(CC(=O)NCCSCc2ccccc2C)S(=O)(=O)c2ccccc2)cc1", "Potency": "inconclusive [cytotoxic, single point]"}, {"smiles": "O=C(NC1CCCCC1)C(CCc1ccccc1)N1CCc2ccccc2C1", "note": "(stereo not drawn)", "Potency": "inconclusive [cytotoxic, single point]"}, {"smiles": "COc1ccc(CN2CCCC(C(=O)c3ccc(SC)cc3)C2)cc1Cn1cccn1", "note": "(stereo not drawn)", "Potency": "inconclusive [cytotoxic, single point]"}, {"smiles": "CCn1nc(NC(=O)c2ccccc2)c2cc3cccc(C)c3nc21", "activity, negative = toxicity": "inactive: -29.1%"}, {"smiles": "CCOc1ccc2nc(NC(=O)C3=NN(c4ccccc4)C(=O)CC3)sc2c1", "activity, negative = toxicity": "inactive: -1.15%"}, {"smiles": "CN(Cc1ccccc1)C(=O)c1ccc(NC(=O)Cc2cccc(NC(=O)C3CCN(C(=O)C4CCCCC4)CC3)c2)cc1", "activity, negative = toxicity": "inactive: -4.63%"}, {"smiles": "Cc1ccc(C(O)c2ncc(-c3ccccc3)[nH]2)c(C)c1", "note": "(stereo not drawn)", "activity, negative = toxicity": "inactive: -8.11%"}, {"smiles": "CCOC(=O)c1ccc(N/C(=N\\S(=O)(=O)c2ccccc2C)c2ccccc2)cc1", "Potency": "inconclusive [cytotoxic, single point]"}, {"smiles": "Cc1cc(C)n2c(Nc3c(C)cccc3C)c(-c3ccccn3)nc2n1", "Potency": "active: 18.4 µM"}, {"smiles": "O=C(/C=C/c1ccco1)Oc1cccc2cccnc12", "Potency": "active: 20.6 µM"}, {"smiles": "CCN1CCc2c(sc(NC(=O)c3cc4ccccc4cc3OC)c2C(N)=O)C1", "Potency": "active: 8.2 µM"}, {"smiles": "Cc1nn(CC(=O)NC(C)c2ccccc2)c(=O)c2ccccc12", "note": "(stereo not drawn)", "activity, negative = toxicity": "inactive: 8.57%"}, {"smiles": "O=S(=O)(NC1CC1)c1ccccc1", "activity, negative = toxicity": "inactive: 14.8%"}, {"smiles": "CC(C)(CNC(=O)c1ccc(-c2cccc(C(F)(F)F)c2)o1)N1CCOCC1", "activity, negative = toxicity": "inactive: -0.11%"}, {"smiles": "COc1cc(CN2CCCC(C(=O)c3ccccc3SC)C2)cc(OC)c1", "note": "(stereo not drawn)", "Potency": "inconclusive [cytotoxic, single point]"}, {"smiles": "CCCCCCCCCCCCCCCC(=O)OC(CC(=O)O)C[N+](C)(C)C", "note": "(stereo not drawn)", "Potency": "inconclusive [cytotoxic, single point]"}, {"smiles": "CCCc1nnc(SCC(=O)N2CCCC(C)C2)n1CCOC", "note": "(stereo not drawn)", "activity, negative = toxicity": "inactive: 0.872%"}, {"smiles": "COc1cc(OC)cc(C(=O)Nc2ccc(-c3nc4ccccc4o3)cc2)c1", "Potency": "inconclusive [cytotoxic, partial curve]"}, {"smiles": "O=c1c2[nH]c3ccc(Br)cc3c2ncn1CCCn1ccnc1", "Potency": "inconclusive [cytotoxic, single point]"}, {"smiles": "CCCCCCNC(=O)CNC(=S)N(Cc1cccs1)C1CCCCC1", "activity, negative = toxicity": "inactive: -2.06%"}, {"smiles": "OC(c1ccccc1)c1nc(-c2cccc(C(F)(F)F)c2)cs1", "note": "(stereo not drawn)", "Potency": "inconclusive [cytotoxic, single point]"}, {"smiles": "COc1cccc(NC(=O)CN(C)C(=O)C2=COCCO2)c1", "activity, negative = toxicity": "inactive: -0.688%"}, {"smiles": "Cc1ccc(S(=O)(=O)C2(S(=O)(=O)c3ccc(C)cc3)CCCC2)cc1", "Potency": "active: 11.6 µM"}, {"smiles": "Cc1ccc(Sc2ccc(NC(=O)CCN3C(=O)NC4(CCCC4)C3=O)cc2)c(C)c1", "Potency": "inconclusive [cytotoxic, single point]"}, {"smiles": "COc1ccc(OC)c(/C=C(\\C)C(=O)c2c(C)cc(C)[nH]c2=O)c1", "activity, negative = toxicity": "inactive: 3.93%"}, {"smiles": "CC(C)C1/C(=N/O)CC(c2ccccc2)NC1c1ccccc1", "note": "(stereo not drawn)", "Potency": "inconclusive [cytotoxic, partial curve, poor fit]"}, {"smiles": "COc1ccc(CN(C(=O)CSc2nnc(-c3ccccc3C)o2)c2ccc(F)cc2)cc1", "Potency": "inconclusive [cytotoxic, single point]"}, {"smiles": "Cn1c(Cn2cnc3ccccc32)nc2ccccc21", "Potency": "inconclusive [cytotoxic, single point]"}, {"smiles": "Cc1nn(C)c(C(=O)NNC(=S)Nc2ccc(Cl)cc2)c1[N+](=O)[O-]", "Potency": "inconclusive [cytotoxic, partial curve, poor fit]"}, {"smiles": "C=CCn1c(=O)c(C(=O)Nc2ccc(C)cc2)c(O)c2ccccc21", "activity, negative = toxicity": "inactive: 2.56%"}, {"smiles": "Cc1csc(NC(=O)c2ccc(-c3ccc(Cl)cc3Cl)o2)n1", "Potency": "inconclusive [cytotoxic, single point]"}, {"smiles": "CC1(C)C/C(=N\\NC(=S)Nc2ccccc2F)c2cc(O)ccc2O1", "Potency": "inconclusive [cytotoxic, single point]"}, {"smiles": "CCCCCn1c(=O)c2ccccc2n2c(CCl)nnc12", "Potency": "active: 23.1 µM"}, {"smiles": "O=C(N/N=C/c1cc(Br)ccc1O)c1ccccc1Cl", "Potency": "active: 16.4 µM"}, {"smiles": "COc1ccccc1-c1cc(C(F)(F)F)nc(NCc2ccco2)n1", "Potency": "inconclusive [cytotoxic, single point]"}, {"smiles": "CCOC(=O)C1(Cc2cccc(F)c2)CCN(Cc2cnn(CC)c2)CC1", "activity, negative = toxicity": "inconclusive: 30.1%"}, {"smiles": "CCCCNc1ccc2c3c(cccc13)C(=O)N(CCCC)C2=O", "Potency": "inconclusive [cytotoxic, single point]"}, {"smiles": "COc1cc(OC)cc(C(=O)N[C@H](C(=O)Nc2nc(-c3cc(OC)ccc3OC)cs2)C(C)C)c1", "activity, negative = toxicity": "inactive: -13.4%"}]}]}
